Experimental findings from the RNAGym collection of RNA variant scans (doi:10.7554/elife.90254) are described below.

B1: LINE1-mini (parent)
chain: GGCAGAGCUCAACACAGCGUGGCAAAGUGGCUGUGGCUAGACUGCC

Read counts are not given, so values of variants with three or more changes are uncertain.

The variants in the data set derive from B1. Put plainly: self-cleavage, relative activity (ratio to wild type); higher = more cleavage; in vitro, sequencing; the parent is a self-cleaving ribozyme.
On to GGCAGAGCUCAACAAAGCGUGGCAAAGUGGCUGUGGCUAUACUGCA, for which the self-cleavage amounted to 0.09.
As to GGCAGAGCUCAACAAAGCGUUACAAAGUGGCUGUGGCCAGACUGCC, the self-cleavage came out at 0.02.
GGCAGAGCUCAACAAAGAGUGGCAAAGUGGCUGUGCCUAGACUGCC: the self-cleavage is 0.08.
For GGCAGAGCUCAACAGAGCGUGGGAAAGUGGCUGUGGAUAGACUGCC, the self-cleavage stood at 0.03.
GGCAGAGCUCAACAAAGCGUGGCAAAGUGGGUGUGGCUAGACUGCU: the self-cleavage was determined as 0.02.
GGCAGAGCUCAACAAAGCGUUGCAAAGUGGAUGUGGCUAGACUACC: the self-cleavage was determined as 0.01.
Consider GGCAGAGCUCAACAAAGCCUGGCAAAAUGGCCGUGGCAAGACUGCC, for which the self-cleavage was found to be 0.02.
In the case of GGCAGAGCUCAACAAAGCGUGGCAAAGUGGUUGUGGCUAGACUGCA, the self-cleavage was 0.02.
GGCAGAGCUCAACAGUGCAUGGCAAAGUGGCUGUGGCUAGACUGCC: the self-cleavage came out at 0.06.
Under GGCAGAGCUCAACAAAGUGUGGCAAAGUGGCUGCGGCUCGACUGCC stands 0.04; under GGCAGAGCUCAACAAAGGGUGGCAAAGUGGCUGUGGUUAGAUUGCC, 0.18; under GGCAGAGCUCAACAAAGCGUGGCAAAGAGGAUGUGGCUAGACUGCC, 0.04.
Take GGCAGAGCUCAACAAAGCGUGGCAAAGUCGCUGUUGCUAGACUGUC: the self-cleavage amounted to 0.14.
As for GGCAGAGCUCAACAGCGCGUGGCAAAGUGGCUGUGGCUGGACUGCC, the self-cleavage is 0.05.
GGCAGAGCUCAACAGAGCGUGGCAACGUGGCUUUGGCUAGACUGCC: the self-cleavage was found to be 0.42.
Take GGCAGAGCUCAACAGAGCGUGGCAAAGUGGCUGUGGCUCGUCUGCC: the self-cleavage came out at 0.05.
As to GGCAGAGCUCAACAAAGCGUGGAAAACUGCCUGUGGCUAGACUGCC, the self-cleavage was 0.08.
With GGCAGAGCUCAACAAAGCGUGGCAAAGUGGAUGGGGCUACACUUCC, the self-cleavage turned out to be 0.
As for GGCAGAGCUCAACAAAGCGCGGCAAAGUGGGUGUGGCUAGUCUGCC, the self-cleavage was 0.01.
For the variant GGCAGAGCUCAACAGAGCGUGGCAAAGUGGCUGUGGUAAGACUGCC, the self-cleavage is 0.03.
Consider GGCAGAGCUCAACAGUGCGUGGCAAAGUGGCUGUGGCUAGAUUGCC, for which the self-cleavage is 0.04.
For GGCAGAGCUCAACAAAGCGUGGCAAAUUGGCUGUGGCUAGACUGCA, the self-cleavage amounted to 0.1.
Under GGCAGAGCUCAACAGUGCGUUGGAAAGUGGCUGUGGCUAGACUACC stands 0.02; under GGCAGAGCUCAACAGAAUGUGGCAAAGUGGCUGUGGCUAGAAAGCC, 0.05; under GGCAGAGCUCAACAGAGCGUGGCAAAGUGGCUGUGGAUAGAUUGCC, 0.03.
In the case of GGCAGAGCUCAACAGAUCGUGGCAAAGUGGCUGUGGUUAGACUGCC it was 0.06; in that of GGCAGAGCUCAACAAAGCGUGGCAAAGUCGCUGUGCCUAGACUGCC, 0.12; in that of GGCAGAGCUCAACAAAGCGUGACAAAGUGCCUCUGGCUAGACAGCC, 0.08.
As for GGCAGAGCUCAACAGAGCAUGGCAAAUUGGCUGUGGCGAGACUGCC, the self-cleavage was 0.02.
As for GGCAGAGCUCAACAAAACGUGGCAAAUUGGCUGUGGCUAGACAGCC, the self-cleavage is 0.05.
In the case of GGCAGAGCUCAACAGAGCGUGGCCAACUGGUUGUGGCUAGACUGCC, the self-cleavage turned out to be 0.01.
With GGCAGAGCUCAACAAAGCGGGGCAAAGUGCCUGUGUCUAUGCUGCC, the self-cleavage was 0.02.
In the case of GGCAGAGCUCAACAGUGCGUGGCAAAGUGGCUGUGGCUAGACUUCC, the self-cleavage turned out to be 0.1.
In the case of GGCAGAGCUCAACAGGGCCUGGCAAAGUGGCUGUGGCUAGAAUGCC it was 0.03.
Consider GGCAGAGCUCAACAGAGCGUGGCAUAGUGGCUGUGGGUAGACUGUC, for which the self-cleavage was determined as 0.01.
As for GGCAGAGCUCAACAAAGCGUGGCAAAGUGGCUGUGACUAGACUGUC, the self-cleavage was found to be 0.05.
With GGCAGAGCUCAACAAAGCGCGGCAAAGUGGCUGUGGCUACACUGCC, the self-cleavage came to 0.02.
As to GGCAGAGCUCAACAGAACGUGCCAAAGUGGCGGUGGCUAGACUGCC, the self-cleavage was 0.06.
In the case of GGCAGAGCUCAACAAAGCCUUGCAAAGUGGCUGUGGCUAGACUGCC it was 0.22; in that of GGCAGAGCUCAACAGAGCGUGGCAAAGUGGUUGUGGCUAGACGGCU, 0.02.
For the variant GGCAGAGCUCAACAAAGCGUGGUAAAGUGGCUGUGGCUAGAAUGCC, the self-cleavage is 0.04.
For the variant GGCAGAGCUCAACAAAGCGUGGCAAAGUGGAUGUGGCUAUACUGCC, the self-cleavage stood at 0.
In the case of GGCAGAGCUCAACAAAGCGUGGCAAAGUGGCUGUGGCUAGAUUGCG it was 0.03; in that of GGCAGAGCUCAACAGACCGUGGCAAAGUGGCUGUGGCUAGACUCGC, 0.03.
As for GGCAGAGCUCAACAGAUCGUGGCAAAAUGGCUGUGGCUAGACUGCA, the self-cleavage worked out at 0.05.
GGCAGAGCUCAACAAAGCGUUGCAAAGUGGCUGUGUCUAGACUGCC: the self-cleavage is 0.04.
Under GGCAGAGCUCAACAGAUCGUGGCAAAGUGGGUGUGGCUAGACUGCC stands 0.03; under GGCAGAGCUCAACAGAGCGUGGAAAUGUGGCUGUGGCUAGACUGCC, 0.06; under GGCAGAGCUCAACAAAGCGGGGCAAAGUGGCUUUGGCUAGACUGCC, 0.99.
Regarding GGCAGAGCUCAACAGAGCGUGGCAAUGUGGCUGUGGCUAGACAGCC, the self-cleavage was determined as 0.
For the variant GGCAGAGCUCAACAAACCGUGGCAAAGUGGCUGUGGCUAGACAGCC, the self-cleavage was 0.05.
Consider GGCAGAGCUCAACAAAGCGUGGAAAAGUGGCUGUGGCUAGUCUGCC, for which the self-cleavage was 0.35.
Regarding GGCAGAGCUCAACAAAACGUGGCAAAGUGGCUGUGGCUAGAGUGCC, the self-cleavage is 0.05.
Take GGCAGAGCUCAACAAAGAAUGGCAAAGUGGCUGUGUCUAGAGUGCC: the self-cleavage worked out at 0.07.
In the case of GGCAGAGCUCAACAAAACGUGGCAAAGCGGCUGUGGCUAGACUGCC, the self-cleavage came out at 0.03.
Take GGCAGAGCUCAACAAAGCGUGACAAAUUUGCUGUGGCUAGACUGCC: the self-cleavage was found to be 0.13.
Regarding GGCAGAGCUCAACAGACCGUGGCAAAGUGGCUGUGGCUAGACUGCU, the self-cleavage is 0.
Under GGCAGAGCUCAACAGAGCGUGGCAAAGUGGGUGUGGCUUGACUGCC stands 0.01; under GGCAGAGCUCAACAAACCGUGGCAAAGUGGCUUUGGCUAGACUGCG, 0.05.
Regarding GGCAGAGCUCAACAAAACGUAGCAAAAUGGCUGUGGCUAGACUGCC, the self-cleavage came to 0.07.
As to GGCAGAGCUCAACAAAGCGUAGCAAAGUGGCUGUGGCUUGACUGCC, the self-cleavage was 0.28.
For GGCAGAGCUCAACAAAGCGGGGCAAAGUGGCUGUGGCUAGACUUCC, the self-cleavage worked out at 0.07.
Under GGCAGAGCUCAACAAAGCGUGGGAAAGUGGCUGUCGAUAGACUGCC stands 0.33; under GGCAGAGCUCAACAAAGCGUUGCAAAGUGGCUGUUGCUAGACUGCC, 0.2; under GGCAGAGCUCAACAAAGCGUGUCAAAGUGGCUGUGGCUAGACCGCC, 0.02.
On to GGCAGAGCUCAACAGAACGUGGCAAAGGGGCUGUGGCUAGACUGCC, for which the self-cleavage stood at 0.14.
Under GGCAGAGCUCAACAAAGCGUGGCAAAGUGACUGUGGCUAGACUGGC stands 0.06; under GGCAGAGCUCAACAAAGGGUGGCAAGGUGGCUGUGGCUAGACUGCC, 0.04.
For GGCAGAGCUCAACAAAGAGUGGCAAAGUGGCUGUGGCUACACUGCC, the self-cleavage amounted to 0.01.
For the variant GGCAGAGCUCAACAAAGCGGGGCAAAGUGGCUGUGGCUACAAUGCC, the self-cleavage came out at 0.01.
For GGCAGAGCUCAACAAAGCGUGGUAAGGUUGCUGUGGCUAGACUGCC, the self-cleavage was 0.04.
On to GGCAGAGCUCAACAAAGCGUGGCAAAGUGGCUGUGGCUAAAAUCCC, for which the self-cleavage came out at 0.03.
In the case of GGCAGAGCUCAACAGAACGUGGCAAAGUGGCUGUGGCUAGACUUCC it was 0.01; in that of GGCAGAGCUCAACAAAGCGUGACAAAGUGGCUGUGACAAGACUGCC, 0.04; in that of GGCAGAGCUCAACAAAACGUGGCAAAGUGGCUGUGGCAAGACUGCC, 0.01.
Turning to GGCAGAGCUCAACAAAGCGUGACAAAGAGGCUGUGGCAAGACUGCC, the self-cleavage is 0.17.
As to GGCAGAGCUCAACAAAGCGUAGAAAAGUGGCUGUGGCUAGACUUCC, the self-cleavage came to 0.02.
Turning to GGCAGAGCUCAACAAAGUGUGGCAAAGUCGCUGUGGAUACAAUACC, the self-cleavage stood at 0.03.
For GGCAGAGCUCAACAAAGCGUGGAAAAGUGGCUGUGGCUAGAUUGCC, the self-cleavage is 0.
Turning to GGCAGAGCUCAACAAAGCGUCGCAAAGUGGCUGUGGGUAGACUGCU, the self-cleavage stood at 0.03.
In the case of GGCAGAGCUCAACAGAGCGUGGCAAUGUCGCUGAGGCUACACUCCC it was 0.01; in that of GGCAGAGCUCAACAAAGCGUGGCAAAGUGCGUGUGGCUAGAUUGCC, 0.09.
Take GGCAGAGCUCAACAAAGCGUGGCAAAAUGGCUUUGGCUAGACUGCC: the self-cleavage was 0.56.
Turning to GGCAGAGCUCAACAGAGCGUGGAAAAGUGGCUGUGGCUAGACUGGC, the self-cleavage is 0.01.
For the variant GGCAGAGCUCAACAGAUCGUGGCAAAGUGGCUGUGGCUGGAAUGCC, the self-cleavage worked out at 0.02.
As to GGCAGAGCUCAACAAAGCUUUGCAAAGUGGCUGUGGCUAGACUGCC, the self-cleavage came out at 0.04.
On to GGCAGAGCUCAACAAAGCGUGGCAAAGUUGCCGUGGCUAGACUGCC, for which the self-cleavage worked out at 0.07.
Under GGCAGAGCUCAACAAAGAGUUGCAAAGUGGCUGUGGCUAGACUGCC stands 0.03; under GGCAGAGCUCAACAAAGCGUGGCAAAGUGACUCUGGCUAGACUGCC, 0.01; under GGCAGAGCUCAACAGAGCGUGGCACAGUGGAUGUGGCUAGAGUGCC, 0.
For the variant GGCAGAGCUCAACAGAGCGUGGUAAAGUGGCUGUGGGUAGGCAGCC, the self-cleavage is 0.
Under GGCAGAGCUCAACAAAGCGUGGCAAAGUGGCAGUGGCCAGACUGCC stands 0.06; under GGCAGAGCUCAACAGAACGUUGCAAAGUGGAUGAGGCUAGACUGCC, 0.04.
Under GGCAGAGCUCAACAAAACGUGGGAAAGUGGCUGUGGCUAGACUACC stands 0.03.
As to GGCAGAGCUCAACAAAGAGUGGCAAAGUGGCUGAUGCUAGACUGCC, the self-cleavage was found to be 0.14.
As to GGCAGAGCUCAACAAAGCGUGGUAAUGUGGCUGUGGCUAGACUGCC, the self-cleavage stood at 0.11.
Turning to GGCAGAGCUCAACAAAGCGUGGCAAAGUGGCUCUGGCUUGACUGCC, the self-cleavage was 0.01.
With GGCAGAGCUCAACAAAGCGUGGCAAAGAGGCUAUCGCUAGACUGCC, the self-cleavage stood at 0.03.
In the case of GGCAGAGCUCAACAAAGUCUGGCAAAGUGGCUGUGGCUAGACUGCC, the self-cleavage was 0.13.
Turning to GGCAGAGCUCAACAAAGCGUCGCAAAGUGGCUGUAGCUAGACUGCC, the self-cleavage worked out at 0.05.
For GGCAGAGCUCAACAAAGCCUGGCAAAGUGGCCGUGGCUAGACUGCC, the self-cleavage came to 0.03.
For the variant GGCAGAGCUCAACAGAGAGUGGCAAAGUGGCUGUGGAUAGACUGCC, the self-cleavage was 0.06.
For GGCAGAGCUCAACAGAGCAUGGCAAAAUGGCUGUGGCUAGACUGCC, the self-cleavage was determined as 0.09.
As for GGCAGAGCUCAACAGAGCGUGGCAAUGAGGCUGUGGCUAGACUGCC, the self-cleavage was 0.04.
Take GGCAGAGCUCAACAGAACUUGGCAAAGUAGUUGUGGCUAGACUGCC: the self-cleavage stood at 0.
Regarding GGCAGAGCUCAACAAAGCGUGGUAAAGUGUCUGUGGCUAGACUGCC, the self-cleavage is 0.1.
Regarding GGCAGAGCUCAACAAAGCCUGACAAAGUGGCUCUGGCUAGACUGCC, the self-cleavage was found to be 0.16.
As for GGCAGAGCUCAACAAAGCGUGGAAACGUGGGUGUGGUUAGACUGCC, the self-cleavage stood at 0.02.
Consider GGCAGAGCUCAACAAAGAGUGGCAAAGUGACUGUGGCUAGACAGCC, for which the self-cleavage was determined as 0.07.
As to GGCAGAGCUCAACAAAGCGUGGCAAAGUGGUUGUGGCUUGACUGCC, the self-cleavage is 0.02.
In the case of GGCAGAGCUCAACAGAACGUGGCAAAGUGGCUGUGGCUCGACUGCC it was 0.02; in that of GGCAGAGCUCAACAGAGCGUGGUAAAGUGGCUGUGGAUAGACUGGC, 0.01.
